Measured values: PubChem BioAssay AID1347120 (National Center for Advancing Translational Sciences (NCATS), 2019)
Among all 390,000 compounds or so, about 930 (0.24%) were called active. Inconclusive results, whose numbers are uncertain, are shown with a selection of clear calls. The call rests on the fitted dose curve; in most records, active means well fitted activation curve with a large enough effect; inconclusive means small, poorly fitted or top-dose-only effect; inactive means no such curve, though single readings can be large or run the other way. Potencies of inconclusive entries are doubtful fits and often do not repeat.

Assay: qHTS for Suppressors of FUS Proteinopathy: Primary screen using FUS-linked yeast assay; further: nearly all actives have a fitted effect of over 55% in size;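 on growth rescue (activation): plate controls were DMSO vehicle for no effect and reference control for full effect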
Conditions: S. cerevisiae FUS-expressing, OD600, 24 h; Potency: growth rescue; growth rescue (activation): at 76.6 µM (top of the series)
Outline: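 Absorbance at 600 nm, taken 24hr after compound addition, measured rescue of FUS-yeast growth at 30C. Induction used 2% galactose with seeding at OD 0.005. Controls: CP55940 from 92uM final, DMSO only.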
Potency means the concentration at half of the fitted maximal effect; tags describe the fitted curve by direction and shape.

| SMILES | Potency | growth rescue (activation) |
| --- | --- | --- |
| Cc1ccc(C)c(Cn2nnc3c(=O)[nH]c(C4CCN(C(=O)c5cccs5)CC4)nc32)c1 | inconclusive: 39.8 µM [activator, single point] |  |
| O=C(COC(=O)c1ccco1)NCc1cccs1 | inconclusive: 8.91 µM [activator, partial curve] |  |
| CO/N=C/c1ccc(N2CCN(C(=O)c3cccc(C(F)(F)F)c3)CC2)c([N+](=O)[O-])c1 | inconclusive: 14.1 µM [activator, partial curve, poor fit] |  |
| COc1ccc(-c2nc3scc(CCNS(=O)(=O)c4cccs4)n3n2)cc1 |  | inactive: 32.9% |
| CC(=O)Nc1cc(-c2ccccc2N(C)C)cn2c(-c3cccc(C(F)(F)F)c3)cnc12 | active: 31.6 µM |  |
| CCOC(=O)c1c(-c2ccccc2)csc1NC(=O)CSc1nnnn1C | inconclusive: 50.1 µM [activator, single point] |  |
| COC(=O)[C@]12C[C@H](CC(=O)NCc3ccccc3)C(=O)N(Cc3ccc(Cl)cc3Cl)C1=C[C@H](C(C)(C)C)O[C@@H]2C |  | inactive: 39.8% |
| CCOc1ccc(NC(=O)CN(C)C(=O)c2cc(-c3ccc(OC)cc3)nc3ccccc23)cc1OCC |  | inactive: 29.7% |
| COc1ccc2cc(CN(C)C(=O)CN3C(=O)NC4(CCCC4)C3=O)ccc2c1 | inconclusive: 25.1 µM [activator, partial curve, poor fit] |  |
| Cc1ccc(S(=O)(=O)N2CCCC2C(=O)Nc2nc3c(s2)CCCC3)cc1 (configuration not stated) | inconclusive: 25.1 µM [activator, partial curve, poor fit] |  |
| COc1ccc(-n2c(C)cc(C(=O)COC(=O)c3cc(NC(=O)c4cccs4)c(OC)c(OC)c3)c2C)cc1 | inconclusive: 39.8 µM [activator, single point] |  |
| Cc1ccc(NC(=O)N2CCN3CCCCC3C2)cc1C (configuration not stated) |  | inactive: -12% |
| COC(=O)[C@]12C[C@H](CC(=O)N3CCN(C(=O)C4CC4)CC3)C(=O)N(Cc3ccc(Cl)cc3Cl)C1=C[C@H](C(C)(C)C)O[C@@H]2C | inconclusive: 35.5 µM [activator, single point] |  |
| Cc1cc(C)nc(NCC(O)CNc2ccccc2Cl)n1 (configuration not stated) |  | inactive: 2.41% |
| CN(C)c1ccc(N/C=C/C(=O)C(C)(C)C)cc1 | inconclusive: 35.5 µM [activator, single point] |  |
| O=C(COc1ccc2c(c1)CCC2)NCc1ccc(Cl)cc1 |  | inactive: 3.56% |
| CCCC(=O)Nc1ccc(-c2csc(NNC(C)=O)n2)cc1 | inconclusive: 44.7 µM [activator, single point] |  |
| O=C(CSc1ccc2ccccc2c1Br)Nc1cccc(S(=O)(=O)NC2=NCCCCC2)c1 | inconclusive: 25.1 µM [activator, partial curve, poor fit] |  |
| C=CCN(C(=O)[C@@H](CCCC)[C@@H](O)c1ccc(Cl)cc1)c1ccccc1 | inconclusive: 25.1 µM [activator, partial curve, poor fit] |  |
| Cc1ccc(-n2nc3c(N4CCCC(C(=O)NCc5ccccc5C)C4)nnc(C)c3c2C)cc1 (configuration not stated) |  | inactive: 9.98% |
| O=C(Nc1nc2ccc(S(=O)(=O)N3CCCCC3)cc2s1)C1CCCO1 (configuration not stated) | inconclusive: 44.7 µM [activator, single point] |  |

| SMILES | Potency | growth rescue (activation) |
| --- | --- | --- |
| CC(C)[C@H](NC(=O)N1CCn2c1nc1ccccc12)C(=O)NCc1ccccc1Cl | inconclusive: 17.8 µM [activator, partial curve] |  |
| CCOC(=O)c1cc2c(=O)n3ccccc3nc2n(CCCOC)c1=NC(=O)c1cc2ccccc2o1 |  | inactive: 7.48% |
| CCN(CC)C(=O)Cn1nc(Cc2ccncc2)c2ccccc2c1=O |  | inactive: 20.9% |
| O=C(/C=C/c1ccc2c(c1)OCCO2)c1ccccc1 |  | inactive: 6.52% |
| Cc1ccc(Cn2c(C)c3cnn(CC(=O)N4CCN(c5cc(C)ccc5C)CC4)c(=O)c3c2C)cc1 | inconclusive: 35.5 µM [activator, partial curve, poor fit] |  |
| O=c1[nH]c(C2CCN(S(=O)(=O)/C=C/c3ccccc3)CC2)nc2c1nnn2Cc1ccc(F)cc1 | inconclusive: 20 µM [activator, single point] |  |
| Cc1nc(-c2ccccn2)nc(SCC(=O)c2ccccc2)c1Cl |  | inactive: 15.6% |
| CCC(C)Sc1cccc(-c2nc3ccc(C)cn3c2NCc2ccccc2)c1 (configuration not stated) | inconclusive: 25.1 µM [activator, single point] |  |
| Cc1ccc(S(=O)(=O)N[C@H](C(=O)NCC2CCC(C(=O)O)CC2)C(C)C)cc1 (some centres not stated) |  | inactive: 8.75% |
| CCSc1n[nH]c(=S)s1 |  | inactive: 21.5% |
| COC(=O)[C@@]1(Cc2ccc(F)cc2)[C@H]2c3cc(C(=O)N(C)C)n(Cc4cc(F)cc5c4OCOC5)c3C[C@H]2CN1C(=O)c1ccccc1 | inconclusive: 39.8 µM [activator, single point] |  |
| COc1ccc2cc(OCC(=O)NNC(=O)Nc3ccc(OC)c(OC)c3)ccc2c1 | inconclusive: 50.1 µM [activator, single point] |  |
| COc1cc(NC(=O)c2ccc(F)cc2)c(OC)cc1Cl |  | inconclusive: 51% [activator] |
| CCN(CC)C(=O)CC[C@H]1CC[C@]2(CCCN(C(=O)c3ccc4ccccc4n3)C2)O1 |  | inactive: -10.6% |
| O=C(CC1SC(=Nc2cccc3ccccc23)N(Cc2ccccn2)C1=O)Nc1ccccc1Br (configuration not stated) |  | inactive: 46.7% |
| N#Cc1ccccc1CN1C(=O)c2ccccc2Sc2ccc(C(=O)OCc3ccco3)cc21 | inconclusive: 28.2 µM [activator, single point] |  |
| Cc1ccc(-n2c(SCC(=O)NN=Cc3c[nH]c4ccccc34)nnc2-c2ccccc2)cc1 | inconclusive: 31.6 µM [activator, partial curve, poor fit] |  |
| COc1ccccc1CNC(=O)c1ccc(Cn2c(SCc3ccccc3)nc3cccnc32)cc1 | inconclusive: 50.1 µM [activator, single point] |  |
| CN(C)c1ccc2cc(S(=O)(=O)O)cc(O)c2c1 | inconclusive: 50.1 µM [activator, single point] |  |
| Cc1ccc(CNC(=O)Cn2cc(S(=O)(=O)Cc3ccccc3Cl)c3ccccc32)cc1 |  | inactive: 16% |
| COc1cc(C2(c3ccc(O)c(OC)c3)C(=O)N(C)c3ccc(Br)cc32)ccc1O |  | inactive: 32.7% |
